Reference: the RNAGym collection of RNA variant scans (doi:10.7554/elife.90254)
Read counts are not given, so values of variants with three or more changes are uncertain.

B1: LINE1-mini (parent)
chain: GGCAGAGCUCAACACAGCGUGGCAAAGUGGCUGUGGCUAGACUGCC

Variants of: B1
Experiment: self-cleavage, relative activity (ratio to wild type); higher = more cleavage; in vitro, sequencing; the parent is a self-cleaving ribozyme

| Variant | self-cleavage |
| --- | --- |
| GGCAGAUCUCAACACAGCGUGGCAAAGUGGGUGUGGCUAGACCGCC | 0.11 |
| GGCAGAUCUCAACACAGCUUGGCAAAAUGGCUGUGGCUAGACUGCC | 0.03 |
| GGCAGAUCUCAACACAGCCUGGGAAAGUGGCAGUGGCUAGACUGCC | 0.03 |
| GGCAGAUCUCAACACAGCGUGGGAACGUGGCUGAGGAUAGACUGCC | 0.01 |
| GGCAGAUCUCAACACAGCGUGGCAAACUGGCUGUGGCUAGACCGCC | 0.02 |
| GGCAGAUCUCAACACACCGUCGCAAAGUGGCUGUGGCUAGGCUGCC | 0.02 |
| GGCAGAUCUCAACACAGCGUGGAAAAGUGGCUGUAGCUAGACUGCA | 0.31 |
| GGCAGAUCUCAACAAAGCGUGGCAAAGCGGCUGUGGCUAGACUGCC | 0.13 |
| GGCAGAUCUCAACACAGCGUAGCAAAGUGGCUUUGACUAGACUGCC | 0.63 |
| GGCAGAUCUCAACACAGCGUGCCAAAAUGGCUGUGGAUAGACUGCC | 0.02 |
| GGCAGAUCUCAACACAGCGUGACAAAGUGGCAGUGGCUAGACUGCC | 0.04 |
| GGCAGAUCUCAACACAGCGUGGCAAAAUGGGUGUGGCUAGACUGCC | 0.02 |
| GGCAGAUCUCAACACAACGUGGCAAAGUGGCUGGGUAUAGACUGCC | 0.03 |
| GGCAGAUCUCAACAAAGCGUGGCAAAGUGCCUGUGGCUGGACAGCC | 0.05 |
| GGCAGAUCUCAACACAGGGUGGCAAAGUGGCUGUGGCUAGACUGAC | 0.09 |
| GGCAGAUCUCAACACAGCGUGGCAAAGUGGUUGUGGCGAGACUGCC | 0.02 |
| GGCAGAUCUCAACACAGCUUGGCAAAGUGGGUGUGGCCAGACUGCC | 0.03 |
| GGCAGAUCUCAACAGAGCGUGGCCAAGUGGCUGUGGCUAGACUGCC | 0.02 |
| GGCAGAUCUCAACACAGCGUGUCAAAGUGGCUGUGGGUAGACUGCC | 0.01 |
| GGCAGAUCUCAACAUAGAGUGGCAAAGUGGCUGUGGCUAGACUGCC | 0.04 |
| GGCAGAUCUCAACACAGCGUGGCAAACUGGCUGUCGCUAGACUGCC | 0.34 |
| GGCAGAUCUCAACACAGCGUGGAAAAGUGGCUGUGGCUAGACCGCC | 0.06 |
| GGCAGAUCUCAACAUAGCGUGGCUAAGUGGCUGUGGCUAGAGUGCC | 0.09 |

| Variant | self-cleavage |
| --- | --- |
| GGCAGAUCUCAACACAGCGUGGAAAAGAGUCUGUGGCUAGACUGCC | 0.01 |
| GGCAGAUCUCAACACAGUGUAGCAAAGUGGCUGUGGCUAGACUGCC | 0.1 |
| GGCAGAUCUCAACACAGUGUGGCAAAGUGGCUGUGGCUAUACUGAC | 0.03 |
| GGCAGAUCUCAACACAGCUUGGCAAAGUGACUGUGGCUAGACAGCC | 0.59 |
| GGCAGAUCUCAACACAACGUGGGAAAGCGGAUCUGGCUAGACUGCC | 0.03 |
| GGCAGAUCUCAACACAGGGUGGCAAAGUGCCUGUGGCUAGACUGCC | 0.04 |
| GGCAGAUCUCAACACAGCGUGGCAAAUUCGCUGUGGCUAGACUGCC | 0.19 |
| GGCAGAUCUCAACACAGUGGGGUAAAAUGGCUGUGAAUAGCCUGCC | 0.02 |
| GGCAGAUCUCAACAAAGCGUGGCGAAGUGGCUGUGGCUCGACUGCC | 0.07 |
| GGCAGAUCUCAACACAGCAUGGCAAAGUGGCUGUGGCAAGACUGCC | 0.14 |
| GGCAGAUCUCAACAAAGGGUGGCAAAGUGGCUGUGGCUAGACUGCC | 0.68 |
| GGCAGAUCUCAACACAGCGUGACAAAGUGGCUGUGGCUAUACUGCC | 0.18 |
| GGCAGAUCUCAACACAGCGUGACAAAGUGGCUGUGGCUACACUGCC | 0.25 |
| GGCAGAUCUCAACACAGCGUGGAAACGUGGCUGUGGCUAGAAAGCC | 0.05 |
| GGCAGAUCUCAACACAGCGUGGCAAACUGGUUGUGGCUACACAGCC | 0.47 |
| GGCAGAUCUCAACACAGCUUGGCAUAGUCGGUGUGGCUAGACUGCC | 0.01 |
| GGCAGAUCUCAACACAGCGUUGGAAAGUGGCAGUGGCUAGACUGUC | 0.09 |
| GGCAGAUCUCAACACAGCGUGGCAAAUUGGCUCUGGCUAAACUGCC | 0.34 |
| GGCAGAUCUCAACACAUCGUGGCGAAGUGGCUGUGGCUAGACUGCC | 0.12 |
| GGCAGAUCUCAACACAGCGUGGAAAAGUGGCUGUGGCUAUACUGCC | 0.62 |
| GGCAGAUCUCAACACAGCGUGGUAAAGUGGCUGUGGGUAGACUGCC | 0.11 |
| GGCAGAUCUCAACACAGCUUGGCAAUGUGGCUGUGGCUAUACUGCC | 0.29 |
| GGCAGAUCUCAACACAACGUGGCAAAUUGGCUGUGGCUAGACUGCC | 0.03 |

| Variant | self-cleavage |
| --- | --- |
| GGCAGAUCUCAACAUAGCGUAGCAAAGUGGUUGUGGCUAGACUGCC | 0.06 |
| GGCAGAUCUCAACAAAGCGUGGCAAACUGGCUGUGGCUAGACUGCG | 0.11 |
| GGCAGAUCUCAACACAGCGUGGCAAAUUGGCUGUUGCUAGACUGCC | 0.08 |
| GGCAGAUCUCAACACAUCGUGGCAAAGGGGCUGUGGCUAGACUGCC | 0.05 |
| GGCAGAUCUCAACACAGCGUUCCAAAGUGGCGGUGGCUAGACUCCC | 0.09 |
| GGCAGAUCUCAACACAGCCUGGCAAAGUGGCUGUGGCUAAACUGCC | 0.11 |
| GGCAGAUCUCAACACAGAGUGGCAAAGAGGCUGUGGCUAGACUGCC | 0.02 |
| GGCAGAUCUCAACAAAGCGUGCCAAAGUGGCUGUGGCUAGACUGCC | 0.14 |
| GGCAGAUCUCAACACAACGUGGCAAACUGGCUGUGGCUAGAAUGCC | 0.07 |
| GGCAGAUCUCAACAUAGCGUGGCAAAGUGGCUGUGGCUAGACUGCA | 0.06 |
| GGCAGAUCUCAACAAGGCGUGGCAAAGUGGCUGUGGCUAGACUGCC | 0.04 |
| GGCAGAUCUCAACACAGCGUGUCAAAGCGGCUGUGGCUAGACAGCC | 0.36 |
| GGCAGAUCUCAACACAGCGUGGCAAACUGGCUGUGGCAAGACUGCC | 0.01 |
| GGCAGAUCUCAACACAGCGUUGCAAAGUGGCUGUGGCUAGUCUGGC | 0.08 |
| GGCAGAUCUCAACAGAGCGUGGCAAAGUUGCUGCGGCUGGACGGCC | 0.07 |
| GGCAGAUCUCAACACAGCGUGCCAUAGUGGCUGUGGCAAGACUGCC | 0.08 |
| GGCAGAUCUCAACACAUCGUGGCAAAGUGGCUGUGGCUAUACCGCC | 0.46 |
| GGCAGAUCUCAACACAGCGUGCCAAAGUGGCUGUGGCUCGACUGCC | 0.07 |
| GGCAGAUCUCAACACAGGGUGGCAAAGUGGCUGAGUCUAGUCUGCC | 0.02 |
| GGCAGAUCUCAACACAGCGUGGAAAAGUGGCUGUGACUAGACUGCA | 0.02 |
| GGCAGAUCUCAACACAGCGUGGUAGAGUGGCUGUGGCUAGACUGCC | 0.04 |
| GGCAGAUCUCAACACAGUGUGGGAAAGAGGCUGUGGCUAGACUGCU | 0.02 |
| GGCAGAUCUCAACACAACGUGGCAAAGGGGCUGUGGCUAGACUGCC | 0.03 |

| Variant | self-cleavage |
| --- | --- |
| GGCAGAUCUCAACAGAGCGUGACGAAGUGGCUGGGGCUAGACUGCC | 0.33 |
| GGCAGAUCUCAACACAGCGUGGGAAAGUGGCUUUGGCUAGACUGCC | 0.01 |
| GGCAGAUCUCAACAUAGCAUGGCAAAGUCGCUGUGGCUAGACUGCA | 0.15 |
| GGCAGAUCUCAACACAGCGUGGCAAAAUGGCUGUGGCUAGACUGGC | 0.39 |
| GGCAGAUCUCAACACAGUGUGACAAAGUGGCUGUGGAUAGACUGCC | 0.04 |
| GGCAGAUCUCAACACAGCGUGGCAAAGUGGUUGUGGCUAUGCUGCC | 0.04 |
| GGCAGAUCUCAACACAGCAUGGCAACGUGGCUGUGGCUAGACUGCC | 0 |
| GGCAGAUCUCAACAGAUCGUGGCUAAGUGGCUGUGGCUAGACUGCC | 0.03 |
| GGCAGAUCUCAACACAGCGUGACAAAGUGGCUGUUGCUACACUGCC | 0.7 |
| GGCAGAUCUCAACACAGCGUGGCAAAGUGGCUGUGGUUAUACUGCC | 0.09 |
| GGCAGAUCUCAACACAGCGUGGCAAAUUGGCUGUGGCUAGACUUCC | 0.04 |
| GGCAGAUCUCAACACAUCGUGGCAUAGUGGCUGUUGCUAGACUGCC | 0.02 |
| GGCAGAUCUCAACACAGCGUUGCAAAGUGGCUGUGGCUAGACUGAC | 0.15 |
| GGCAGAUCUCAACACAGCGUGGCAAAUUGCCUGUGUCUAGACUGCC | 0.14 |
| GGCAGAUCUCAACACAGCUUGGCAAAGUAGCUGUGGCUAGACUUCC | 0.21 |
| GGCAGAUCUCAACACAGCGUGUCAAAGUGGCUGUGGCUAAACUGAC | 0.03 |
| GGCAGAUCUCAACACAGCGUGCCAAAGUGGCUGUGGCUAGAUUGCC | 0.12 |
| GGCAGAUCUCAACACAGCGUCGCAAAGUGGGUGUGACUAGACUGCC | 0.2 |
| GGCAGAUCUCAACACAGCGUGGAAAAGUUGCCGUGGCUAGACUGCC | 0.03 |
| GGCAGAUCUCAACACAGCGUGGCAAAAUGGCUGUGGCUUGACUGCC | 0.09 |
| GGCAGAUCUCAACAAAACGUGGCAAAGUGGAUAUGGCUAGGAUGCC | 0.05 |
| GGCAGAUCUCAACACAGCGUUGCAAAGUGGCUGUGGCGAAACUGCC | 0 |
| GGCAGAUCUCAACACAGCGUGGCAAAGUGGAUGUCGCUAGACUGCC | 0.07 |

| Variant | self-cleavage |
| --- | --- |
| GGCAGAUCUCAACACAGCGUAGCAAAGUGGCUGUGGCUAGUCUGCC | 0.14 |
| GGCAGAUCUCAACAUUGCGUGGCAAAGUGGCUGUGUCUAGACUGCC | 0.08 |
| GGCAGAUCUCAACACAGCGUGGCAAAGUGGUUGUGGCUGGACUGCC | 0.02 |
| GGCAGAUCUCAACACAGCUUGGAAAAGUGGCUGUGGUUAGACUGCC | 0.02 |
| GGCAGAUCUCAACACAGUGUGGCAAAGAGGCCGUGGCUAGACUGCC | 0.02 |
| GGCAGAUCUCAACACAGCGUGCCAAAGUGGCUCUGGCUAGACUGCC | 0.02 |
| GGCAGAUCUCAACACAGCGUGGCAAAGUGGCUGUGGCUAGAUAGCC | 0.21 |
| GGCAGAUCUCAACACAGCGUGCCAAAGUGGGUGUGGCUAGACUACC | 0.15 |
| GGCAGAUCUCAACACAGCGUAGCAAAGUGGCUGGGGAUAGACUGCU | 0.08 |
| GGCAGAUCUCAACAAAGCGUGGCAAAGUGGCUGUGGGUACACUGCC | 0.03 |
| GGCAGAUCUCAACACAGCUUAGCAAUGUGGCUGUGGCUGGACUGCC | 0.03 |
| GGCAGAUCUCAACAGAGCGUGGCAAAGUGGCUGUGGCUAGACUGUG | 0.06 |
| GGCAGAUCUCAACACAGCGUAGCGAAGUGGCUGUGCCUAGACCGCC | 0.01 |
| GGCAGAUCUCAACACAGCGUGGCAAAAUCGCUGUGGCUAGACAGCC | 0.03 |
| GGCAGAUCUCAACACAGCCUGGCAAAGUGGCUGUAGCUAGUCUGCC | 0.13 |
| GGCAGAUCUCAACACAGCGUUGCAAACUGGCUGUGGCUAGACUACC | 0.03 |
| GGCAGAUCUCAACACAGCGUUGCAAAGUGGCUGUGGCUAAACUGCC | 0.08 |
| GGCAGAUCUCAACAGAGCGUGGCAAAGCGGCUGUGGCUAGACUGCC | 0.04 |
| GGCAGAUCUCAACACAGCUUGGCAAAGUGGCUGUGGCAAGUCUGCC | 0.12 |
| GGCAGAUCUCAACACAUCGUGGCAAAGUGGCUGUGGCAAGACUGCA | 0.04 |
